Where two headings read alike, the source gives them in different places.
How the values were obtained:
E. coli ATCC 43827 = assay type: cell-based, Escherichia coli
S. aureus ATCC 33591 = assay type: cell-based, Staphylococcus aureus
Description: (§1) Fresh cultures were used in antimicrobial assay. […] Moreover MBC was evaluated. […] All experiments were conducted in triplicate.

[1] = system: A. baumannii ATCC BAA 1605; assay type: cell-based, Acinetobacter baumannii; settings: triplicate; for A. baumannii ATCC BAA 1605 MIC: second experimental round, broth microdilution (CLSI), Mueller-Hinton Broth, 0.5 × 10^5 CFU/mL, 1-[…], 18 h at 37 °C; for A. baumannii ATCC BAA 1605 MBC: second round, MIC well and two higher concentrations seeded on agar plates, no visible colonies
Description: as §1

E. coli ATCC 25922 = assay type: cell-based, Escherichia coli
Description: as §1

Sheep red blood cells = assay: Hemolysis assay (HC50); assay type: cell-based; settings: for HC50 (µM/ml): sheep erythrocytes, recalculated from μg/mL values, estimated as in https://pubmed.ncbi.nlm.nih.gov/29307075/; for HC50: sheep red blood cells 4% (v/v) in PBS, peptides 1-[…], 60 min at 37 °C, hemoglobin release at 590 nm, 1% Triton-X 100 = 100% hemolysis, triplicate, HC50 by ic50.tk
Description: The hemolysis assay was conducted according to the procedure described previously. Sheep red blood cells (Defibrillated Sheep Blood, Graso, Poland) were used. […] Then the solution of RBCs was added to each well (100 μL with a 4% concentration of erythrocytes (v/v). The control wells for 0 and 100% hemolysis were also prepared: RBCs suspended in PBS and 1% of Triton-X 100, respectively. After that the plates were incubated for 60 min at 37 °C and then centrifuged at 800 × g for 10 min at 4 °C (Sorvall ST 16R Centrifuge, Thermo Scientific). The supernatant was carefully […] to new microtiter plates and the release of hemoglobin was measured at 590 nm (Multiskan™ GO Microplate Spectrophotometer, Thermo Scientific). Hemolysis for each concentration was calculated as the percentage of control with 100% hemolysis. All experiments were conducted in triplicate. The final values of HC50 were computed using ic50.tk tool.

P. aeruginosa ATCC 9027 = assay type: cell-based, Pseudomonas aeruginosa; settings: triplicate; for P. aeruginosa ATCC 9027 MIC: second experimental round, broth microdilution (CLSI), Mueller-Hinton Broth, 0.5 × 10^5 CFU/mL, 1-[…], 18 h at 37 °C; for P. aeruginosa ATCC 9027 MBC: second round, MIC well and two higher concentrations seeded on agar plates, no visible colonies
Description: as §1

[2] = second experimental round, broth microdilution (CLSI), Mueller-Hinton Broth, 0.5 × 10^5 CFU/mL, 1-[…], 18 h at 37 °C, triplicate
[3] = second round, MIC well and two higher concentrations seeded on agar plates, no visible colonies, triplicate

CC[C@H](C)[C@H](N)C(=O)NCC(=O)N[C@@H](CCCCN)C(=O)N[C@@H](CC(C)C)C(=O)N[C@@H](Cc1ccccc1)C(=O)N[C@@H](CCCCN)C(=O)N[C@@H](CCCNC(=N)N)C(=O)N[C@H](C(=O)N[C@H](C(=O)N[C@@H](CCC(=O)O)C(=O)N[C@@H](CCCNC(=N)N)C(=O)N[C@H](C(=O)N[C@@H](CCCNC(=N)N)C(=O)N[C@@H](CCCNC(=N)N)C(=O)N[C@@H](Cc1ccccc1)C(=O)N[C@H](C(=O)N[C@@H](CCCNC(=N)N)C(=O)N[C@@H](CO)C(=O)N[C@@H](Cc1ccccc1)C(=O)N[C@@H](CC(C)C)C(=O)N[C@@H](CCCNC(=N)N)C(=O)N[C@H](C(=O)N[C@@H](CC(C)C)C(=O)N[C@@H](CCCNC(=N)N)C(N)=O)[C@@H](C)O)C(C)C)[C@@H](C)CC)C(C)C)[C@@H](C)CC [Papan]
74 µM/ml: HC50 (µM/ml) (Sheep red blood cells)
64 µg/mL: E. coli ATCC 43827 MBC (E. coli ATCC 43827) | E. coli ATCC 43827 MBC (E. coli ATCC 43827; [3]) | E. coli ATCC 25922 MIC (E. coli ATCC 25922) | E. coli ATCC 25922 MIC (E. coli ATCC 25922; [2])
128 µg/mL: E. coli ATCC 25922 MBC (E. coli ATCC 25922) | E. coli ATCC 25922 MBC (E. coli ATCC 25922; [3]) | P. aeruginosa ATCC 9027 MIC (P. aeruginosa ATCC 9027) | P. aeruginosa ATCC 9027 MBC (P. aeruginosa ATCC 9027)
310 µg/mL: HC50 (Sheep red blood cells)
32 µg/mL: E. coli ATCC 43827 MIC (E. coli ATCC 43827) | E. coli ATCC 43827 MIC (E. coli ATCC 43827; [2]) | S. aureus ATCC 33591 MBC (S. aureus ATCC 33591) | S. aureus ATCC 33591 MIC (S. aureus ATCC 33591; [2]) | S. aureus ATCC 33591 MBC (S. aureus ATCC 33591; [3]) | A. baumannii ATCC BAA 1605 MIC [1] | A. baumannii ATCC BAA 1605 MBC [1]

CC[C@H](C)[C@H](NC(=O)[C@H](CCCCN)NC(=O)[C@H](CCCCN)NC(=O)[C@@H](NC(=O)[C@@H](NC(=O)[C@H](CCCCN)NC(=O)[C@@H](NC(=O)[C@H](C)NC(=O)[C@@H](NC(=O)[C@H](Cc1c[nH]cn1)NC(=O)CNC(=O)[C@H](C)NC(=O)[C@H](CC(C)C)NC(=O)[C@H](CC(=O)O)NC(=O)[C@H](CCCCN)NC(=O)[C@H](C)NC(=O)CNC(=O)CNC(=O)[C@H](CCCCN)NC(=O)[C@H](CC(C)C)NC(=O)[C@H](Cc1c[nH]cn1)NC(=O)[C@H](CC(=O)O)NC(=O)[C@@H](NC(=O)[C@@H](NC(=O)CN)C(C)C)[C@@H](C)CC)C(C)C)[C@@H](C)O)C(C)C)[C@@H](C)CC)C(N)=O [Syphaxin-TII8]
147 µM/ml: HC50 (µM/ml) (Sheep red blood cells)
>512 µg/mL: E. coli ATCC 43827 MIC (E. coli ATCC 43827; [2]) | E. coli ATCC 43827 MBC (E. coli ATCC 43827; [3]) | S. aureus ATCC 33591 MIC (S. aureus ATCC 33591; [2]) | S. aureus ATCC 33591 MBC (S. aureus ATCC 33591; [3]) | A. baumannii ATCC BAA 1605 MIC [1] | A. baumannii ATCC BAA 1605 MBC [1] | E. coli ATCC 25922 MIC (E. coli ATCC 25922; [2]) | E. coli ATCC 25922 MBC (E. coli ATCC 25922; [3]) | HC50 (Sheep red blood cells) | P. aeruginosa ATCC 9027 MIC (P. aeruginosa ATCC 9027) | P. aeruginosa ATCC 9027 MBC (P. aeruginosa ATCC 9027)

CC[C@H](C)[C@H](NC(=O)[C@H](CCCCN)NC(=O)[C@H](CCCCN)NC(=O)[C@@H](NC(=O)[C@@H](NC(=O)[C@H](CCCCN)NC(=O)[C@@H](NC(=O)[C@H](C)NC(=O)[C@@H](NC(=O)[C@H](Cc1c[nH]cn1)NC(=O)CNC(=O)[C@H](C)NC(=O)[C@H](CC(C)C)NC(=O)[C@H](CC(=O)O)NC(=O)[C@H](CCCCN)NC(=O)[C@H](C)NC(=O)[C@H](C)NC(=O)CNC(=O)[C@H](CCCCN)NC(=O)[C@H](CC(C)C)NC(=O)[C@@H](NC(=O)[C@H](CCC(=O)O)NC(=O)[C@H](CC(C)C)NC(=O)[C@@H](NC(=O)CN)C(C)C)[C@@H](C)CC)C(C)C)[C@@H](C)O)C(C)C)[C@@H](C)CC)C(N)=O [Syphaxin-TII6]
512 µg/mL: E. coli ATCC 43827 MIC (E. coli ATCC 43827; [2]) | E. coli ATCC 43827 MBC (E. coli ATCC 43827; [3]) | E. coli ATCC 25922 MBC (E. coli ATCC 25922; [3])
256 µg/mL: E. coli ATCC 25922 MIC (E. coli ATCC 25922; [2])
64 µg/mL: A. baumannii ATCC BAA 1605 MIC [1] | A. baumannii ATCC BAA 1605 MBC [1]
>512 µg/mL: S. aureus ATCC 33591 MIC (S. aureus ATCC 33591; [2]) | S. aureus ATCC 33591 MBC (S. aureus ATCC 33591; [3]) | HC50 (Sheep red blood cells) | P. aeruginosa ATCC 9027 MIC (P. aeruginosa ATCC 9027) | P. aeruginosa ATCC 9027 MBC (P. aeruginosa ATCC 9027)
152 µM/ml: HC50 (µM/ml) (Sheep red blood cells)

CC[C@H](C)[C@H](N)C(=O)NCC(=O)N[C@@H](CCCCN)C(=O)N[C@@H](CC(C)C)C(=O)N[C@@H](Cc1ccccc1)C(=O)N[C@@H](CCCCN)C(=O)N[C@@H](CCCNC(=N)N)C(=O)N[C@H](C(=O)N[C@@H](Cc1c[nH]cn1)C(=O)N[C@@H](CCC(=O)O)C(=O)N[C@@H](CCCNC(=N)N)C(=O)N[C@H](C(=O)N[C@@H](CCCCN)C(=O)N[C@@H](CCCNC(=N)N)C(=O)N[C@@H](Cc1ccccc1)C(=O)N[C@@H](CC(C)C)C(=O)N[C@@H](CCCNC(=N)N)C(=O)N[C@H](C(=O)N[C@@H](Cc1ccccc1)C(=O)N[C@@H](CC(C)C)C(=O)N[C@@H](CCCNC(=N)N)C(=O)N[C@@H](CCCNC(=N)N)C(=O)N[C@@H](CC(C)C)C(=O)N[C@@H](CCCNC(=N)N)C(N)=O)C(C)C)[C@@H](C)CC)[C@@H](C)CC [Varsavian]
128 µg/mL: E. coli ATCC 43827 MBC (E. coli ATCC 43827) | E. coli ATCC 43827 MBC (E. coli ATCC 43827; [3]) | P. aeruginosa ATCC 9027 MIC (P. aeruginosa ATCC 9027)
512 µg/mL: HC50 (Sheep red blood cells)
113 µM/ml: HC50 (µM/ml) (Sheep red blood cells)
64 µg/mL: E. coli ATCC 43827 MIC (E. coli ATCC 43827) | E. coli ATCC 43827 MIC (E. coli ATCC 43827; [2]) | E. coli ATCC 25922 MBC (E. coli ATCC 25922) | E. coli ATCC 25922 MIC (E. coli ATCC 25922) | E. coli ATCC 25922 MIC (E. coli ATCC 25922; [2]) | E. coli ATCC 25922 MBC (E. coli ATCC 25922; [3])
256 µg/mL: P. aeruginosa ATCC 9027 MBC (P. aeruginosa ATCC 9027)
32 µg/mL: S. aureus ATCC 33591 MBC (S. aureus ATCC 33591) | S. aureus ATCC 33591 MIC (S. aureus ATCC 33591; [2]) | S. aureus ATCC 33591 MBC (S. aureus ATCC 33591; [3]) | A. baumannii ATCC BAA 1605 MIC [1] | A. baumannii ATCC BAA 1605 MBC [1]

CC[C@H](C)[C@H](NC(=O)[C@H](Cc1c[nH]c2ccccc12)NC(=O)[C@H](CCCNC(=N)N)NC(=O)[C@H](CC(C)C)NC(=O)CN)C(=O)N[C@@H](Cc1c[nH]c2ccccc12)C(=O)N[C@@H](CCCCN)C(=O)N[C@H](C(=O)N[C@@H](Cc1c[nH]c2ccccc12)C(=O)N[C@@H](CCCNC(=N)N)C(=O)N[C@@H](CCCNC(=N)N)C(=O)N[C@@H](CC(C)C)C(N)=O)[C@@H](C)CC [Suselkan]
4 µg/mL: E. coli ATCC 43827 MIC (E. coli ATCC 43827; Supplementary Data 5D/5E) | E. coli ATCC 43827 MIC (E. coli ATCC 43827; [2]) | S. aureus ATCC 33591 MBC (S. aureus ATCC 33591; Supplementary Data 5D/5E) | S. aureus ATCC 33591 MIC (S. aureus ATCC 33591; Supplementary Data 5D/5E) | S. aureus ATCC 33591 MBC (S. aureus ATCC 33591; [3]) | A. baumannii ATCC BAA 1605 MIC [1] | A. baumannii ATCC BAA 1605 MBC [1]
32 µg/mL: P. aeruginosa ATCC 9027 MBC (P. aeruginosa ATCC 9027)
8 µg/mL: E. coli ATCC 43827 MBC (E. coli ATCC 43827; Supplementary Data 5D/5E) | E. coli ATCC 43827 MBC (E. coli ATCC 43827; [3]) | E. coli ATCC 25922 MIC (E. coli ATCC 25922; Supplementary Data 5D/5E)
42 µM/ml: HC50 (µM/ml) (Sheep red blood cells)
95 µg/mL: HC50 (Sheep red blood cells)
16 µg/mL: E. coli ATCC 25922 MBC (E. coli ATCC 25922; Supplementary Data 5D/5E) | E. coli ATCC 25922 MBC (E. coli ATCC 25922; [3]) | P. aeruginosa ATCC 9027 MIC (P. aeruginosa ATCC 9027)
